The other results are listed elsewhere or left out.

The subject of the assay is PF3D7_0420300 AP2 domain 1 (GST-tagged). As to the kind of experiment: gcPBM binding intensity (ln(normalized median fluorescence intensity)); higher = stronger DNA binding. An outline of the steps:
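Binding of GST-tagged P. falciparum DNA-binding domains, expressed in E. coli and used at about 25 μg on average, was carried out for 1 h in 1× PBS containing 1% milk, 0.2 mg/ml BSA, 0.5% salmon testes DNA and 0.03% Triton X-100. The target was an Agilent 4 × 180k array of primer-extended double-stranded 36-bp intergenic genomic probes plus negative controls, read with Alexa488 anti-GST antibody at 488 nm. Binding intensity is the highest Masliner-normalised natural-log median intensity across replicate spots of either probe orientation.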
Turning to “ACAAAATTTACAAAATGTACAAAATTTACAAAATAT [XGTACX_site3542]”, the “gcPBM binding intensity (ln)” value came out at 9.22. The figure for “TTTTTGTGCATTGATTGTACTTTCTAGGATTATTAA [XGTACX_site7070]” is 9.42.

With “TTTATCCAATAATCTGGTACACAATAATCATTCATG [XGTACX_site6192]”, the “gcPBM binding intensity (ln)” value was 9.02. The result for “ATTCATATATACTTCACACACATTTTATCATTCAAA [CACACA_site2468]” reads 9.78; that for “TTTCTATTTATTTCAAGTACTAAAAATATATATAAC [XGTACX_site8203]”, 9.03; that for “TTATTACCATATTTTGTACACACATCTTTATCTCAA [CACACA_site9054]”, 9.69. The result for “CTTGGGCGTCATAATGAACACACAATTATATTATGA [CACACA_site9297]” reads 9.17; that for “ATTATATAATCTATATGTACATATATATATATATAT [XGTACX_site4970]”, 9.19.

As for “TATATATAAGCGCATGCACACGCAAAGGTATATAAA [CACACA_site8107]”, the “gcPBM binding intensity (ln)” value was determined as 9.39. For the sequence “ATATATACAAATCCTTTTTTCCAAGATGGAAAAAGA [CACACA_negctrl_site382]”, the “gcPBM binding intensity (ln)” value came out at 8.99. The result for “AAAATAATAAATAACGCATGCGTGTGCATTTTATTC [TGCATGCA_site898]” reads 9.49; that for “ATAATAATATTATTTTGTACATATGTGCTTATTTAT [XGTACX_site5540]”, 9.38.

For “GTATAATTTAAAAAGTGTACATAAAGTTTTTATTAA [XGTACX_site1090]”, the “gcPBM binding intensity (ln)” value worked out at 8.85. The result for “TTTTGTCAACATTTTTATATTAGGTCTTGAACGATT [GTGCAC_negctrl_site72]” reads 9.03. Turning to “AGTAATAAGTAATTTACACACATATTATAGCATCAC [CACACA_site6971]”, the “gcPBM binding intensity (ln)” value turned out to be 9.78. The result for “AGAATCACCAAATATGTACACACCTTAACATGTTTA [CACACA_site2068]” reads 9.55; that for “ATATATATGGTCATTTGTACATATCGTGAGAGCTGC [XGTACX_site4117]”, 9.24. The result for “ATATAACATAATGGATGTACATGTATAAATATAAAA [XGTACX_site8228]” reads 9.45. In the case of “TATATTATAAATTAATGTACGTAATTTTTTTTTTTT [XGTACX_site2500]”, the “gcPBM binding intensity (ln)” value is 8.98. The figure for “TTTTTTTTTTACTTCACACATATACATTTATATTTA [CACACA_site4385]” is 9.4; for “CCTACAATTCGTAATACACACACATATATATATATA [CACACA_site9251]” it is 9.73; for “TAATTTTGTAAAAATTGTACATATTTATCTTTTTAT [XGTACX_site4305]” it is 9.08. The result for “TCATATTATAAAAAATGTACAAGGAAAAAATATATA [XGTACX_site337]” reads 9.46; that for “ACATTATATAAAATATGTACACATAAATAAATAAAT [XGTACX_site5031]”, 9.42. The figure for “AAAAAAAAAAAAAACACACACATATAATATATTTAA [CACACA_site1337]” is 9.69; for “AAAAAATTCAAAATCACACATAAAAAAGGACACATA [CACACA_site5972]” it is 9.74. Consider “GATTAAATTTGACACTGTACAAAAAATAAAATGAGG [XGTACX_site504]”, for which the “gcPBM binding intensity (ln)” value came out at 9.29. The result for “ATGAATATAAAATATACACACTTATATATTGAATGA [CACACA_site4274]” reads 9.42.

As for “GTTAATTCATTAAGGACACACAAAAAAAAAAAAAAA [CACACA_site998]”, the “gcPBM binding intensity (ln)” value is 9.17. The figure for “CCAACATAGAGGGGCACACACATATATACATAAAAA [CACACA_site1847]” is 9.68. The result for “CTTATATGAAGCCTCTTTATTCATAAATAAGAATAA [TGCATGCA_negctrl_site120]” reads 8.76; that for “AGTATACATATATATACACACACATATATATATATA [CACACA_site7883]”, 9.61.

As for “AAACAACATGGACACGCACACACAAAAAAAGCATGC [CACACA_site73]”, the “gcPBM binding intensity (ln)” value worked out at 9.96. The result for “TTAACAAAATTTCCGTGTACGTAAATAAGAACATAG [XGTACX_site7200]” reads 9.3; that for “TTTTTTGAAAATAAAAGTACAAATTTTATATTTAAA [XGTACX_site2758]”, 8.6. For “ACAAACTAAAAAAGAAGTACAAATCGTATTAATAAT [XGTACX_site8684]”, the “gcPBM binding intensity (ln)” value amounted to 9.59. Regarding “AGAAAAAAACGGTACAGTACACATAAACTAATTATT [XGTACX_site8617]”, the “gcPBM binding intensity (ln)” value came to 9.63.

Turning to “TATTATATATGGAAGTAATAATATATATATATATAT [GTGCAC_negctrl_site63]”, the “gcPBM binding intensity (ln)” value was 9.15. As to “AAATTGTTAAAAAGAAGTACATTCTTTTATTTCTTA [XGTACX_site540]”, the “gcPBM binding intensity (ln)” value came out at 8.92. The result for “TAAATGTGTATATATTGTACAAATATTAATACATAC [XGTACX_site8102]” reads 9.33. The figure for “AAAGAACTTAATGCTGCACACAAAAAAAAGGAAAAA [CACACA_site8375]” is 9.57. On to “ATAATGAAGACTTTTTTACACACTTCATATATTATA [CACACA_site8630]”, for which the “gcPBM binding intensity (ln)” value was found to be 9.48. Turning to TGATATTTTTCCATAGTGCAAAATATAGTAATGTAT, the “gcPBM binding intensity (ln)” value was found to be 9.11. With “TTACATACATACAAGTGTACGCATATATTAATATTA [XGTACX_site4006]”, the “gcPBM binding intensity (ln)” value stood at 9.23. “ATATGTACAAGTTATACACACATGTACAGTTATATA [CACACA_site6706]”: the “gcPBM binding intensity (ln)” value came out at 9.48. The figure for TTTAACATTTCAGATGTGCACATTTTCCGAACCAGT is 9.33; for “AGAACGACTAAGCAGTGTACATTTTGTATATACAAT [XGTACX_site2831]” it is 9.25. The result for “TTCTATATATTATATGCATGTAAAACATATTAAAAT [TGCATGCA_site662]” reads 9.05; that for “TTTTTATGAAAATAAACACACGATTTATTATATATA [CACACA_site1311]”, 9.02; that for “TGCATGTAATTTTTGTGTCCACATAAAATATTTAAT [XGTACX_site5652]”, 9.04. The result for “TTTTTCAATTGTAGTGGTACAGATATAATTATCTCT [XGTACX_site5500]” reads 9.08; that for “ATGTACTATGATAATGCATGCAATAATACATTTTTA [TGCATGCA_site318]”, 9.18.

As to “TAATATATATATAATACACACTATTTTAATCACATA [CACACA_site4849]”, the “gcPBM binding intensity (ln)” value turned out to be 9.35. On to “TTATTATGTATATATGCACACAATACCCAAAACAAC [CACACA_site80]”, for which the “gcPBM binding intensity (ln)” value stood at 9.64. As to “GAAGATTTATCTTGCACACGCAAAAAAAAAAAAAAA [CACACA_site154]”, the “gcPBM binding intensity (ln)” value is 8.81.

As for “TTTATTGCTCTATATGCACACCTTAATTCTTCATTT [CACACA_site8682]”, the “gcPBM binding intensity (ln)” value came out at 9.56. With “TACGTAAATTCTAATACACACTATAGGATATTCTGC [CACACA_site7248]”, the “gcPBM binding intensity (ln)” value was found to be 9.25.

Consider “AAAAATAATCATAGTAGTACAAAAAAAAAAAAAAAA [XGTACX_site3736]”, for which the “gcPBM binding intensity (ln)” value came out at 8.81. Turning to “GAAAATATTTCTATCTGTACTTATTTATATATATAT [XGTACX_site7317]”, the “gcPBM binding intensity (ln)” value is 9.34. The result for “TTGTCACTAATAGATGCATGCAATCATTCCATTTTT [TGCATGCA_site938]” reads 9.23; that for “TTATGTCGTAAATACACACATACATATACATACACA [CACACA_site1374]”, 9.57. The result for “TTGTAATGATATATTTGTACTTAATATAATTGTATA [XGTACX_site2748]” reads 9.09; that for “AATAAATTGAAACACACACACACATATATATATATA [CACACA_site848]”, 10.

With “TAACAAAACATAGATTGTACATATTATAAATGTATA [XGTACX_site1543]”, the “gcPBM binding intensity (ln)” value came to 9.26.

As to “GTTACATACCTATACACACACATATATAAATAAATA [CACACA_site6549]”, the “gcPBM binding intensity (ln)” value turned out to be 9.89. “ATATAAAAATACAGGTGTACATTTTTTCATATTTAT [XGTACX_site6959]”: the “gcPBM binding intensity (ln)” value is 9.31.

For “TATTCTTATCTTACCACACACAATGTACGAAAAGAT [CACACA_site6296]”, the “gcPBM binding intensity (ln)” value is 9.44.

“CAAAATATACACACGTGTACACAAATATTTACAAAA [XGTACX_site2257]”: the “gcPBM binding intensity (ln)” value came to 9.47. For “CAATATTATATTACTTGTACACATATGTAGTTTCGA [XGTACX_site8945]”, the “gcPBM binding intensity (ln)” value was 9.18. On to “TTTCCCATAGGAAAAACACACATATATTATATATAA [CACACA_site1981]”, for which the “gcPBM binding intensity (ln)” value amounted to 9.12. The result for “TTTTTTGTTAAACCGGTGCATATAAATATATATATA [GTGCAC_site9989]” reads 9.12. The figure for “TAATTATTACACGGTATTATATATAATATGTTAAAA [GTGCAC_negctrl_site134]” is 9.02; for “ATCATTTTTTATGCGTGTACATAAATTTATTAGGTT [XGTACX_site2786]” it is 9.53.

For the sequence “CACAAAAAAGTTCATACACACAACATATTTATATAT [CACACA_site2887]”, the “gcPBM binding intensity (ln)” value worked out at 9.75. In the case of “TTTTTTTTTTTTCTGTGTACATATATAATATATATA [XGTACX_site1592]”, the “gcPBM binding intensity (ln)” value is 9.35. The result for “ATATCTATATTTTAAAGTACGTAGTAAAAAGAAAAA [XGTACX_site4323]” reads 9.18; that for “TTTTATGAAAAGATGAGTACACAATACTTTTTAATT [XGTACX_site8253]”, 8.99; that for “AAAAAAAAAAAAAGATGTACATATATTTTTATTATA [XGTACX_site654]”, 9.02. As to “AAGGATATAAAAAAACGTACGTACGATAATATAATT [XGTACX_site1292]”, the “gcPBM binding intensity (ln)” value is 9.34. The figure for “AACCATTCTTCTAATTGTACATTGAAAAATCATGAT [XGTACX_site3854]” is 9.08. Consider AGTATTTTAATTTCAGTGCATTTTATTCTATAATTA, for which the “gcPBM binding intensity (ln)” value came out at 9.43. The result for “AAAAAAAAAAAAAATGCATGTGCGTAAATAATAATA [TGCATGCA_site793]” reads 9.38; that for “AAGTTTTCTTACAGATGTACTTTTTAAAAATAAACT [XGTACX_site6632]”, 9.11; that for “TTTAGGAAAGGCGGCACACATTTATATATTTATTTA [CACACA_site5931]”, 9.22. On to “ATATATATCTATATTTGTACATATTACATTCAAGTT [XGTACX_site1749]”, for which the “gcPBM binding intensity (ln)” value was 9.27.

As for “TTTTTTTTTTCTTGTTGTACTTTTAATAATTCATAT [XGTACX_site4704]”, the “gcPBM binding intensity (ln)” value turned out to be 9.44. The result for “GAAATTTTTAAAAAGGTGCTTTTAACAAAAATTATT [GTGCAC_site9687]” reads 8.91; that for “TTATTAAAAAAAATATGTACTCACAATATAATATAT [XGTACX_site3738]”, 9.14. The figure for “TATATATATATAACATGTACATAAAATACATTTATA [XGTACX_site7370]” is 9.06; for “ACCATCCTTAATACTTATTTTTTCACAATTAAGTAA [GTGCAC_negctrl_site269]” it is 9.3.

Values taken from the supplement of paper PMC11417369.
